From PubChem BioAssay AID1159614 (National Center for Advancing Translational Sciences (NCATS), 2016)
About 65 (0.1%) of roughly 45,000 compounds were called active. Calls come from the whole dose curve; as a rule, active = well fitted activation curve with a large enough effect; inconclusive = small, poorly fitted or top-dose-only effect; inactive = no such curve, though single readings can be large or run the other way. The list shows a part of the results.

Molecular target: Galactocerebrosidase (Homo sapiens) (UniProt P54803)
Experiment: A Novel Cell-Based Assay to Identify Small Molecules for B -Galactocerebrosidase; note: 0% is about no effect; nearly all actives have a fitted effect of over 65% in size
Conditions: 145M-Twi-hGALC-G270D cells (Twitcher mouse brain line with human GALC G270D), HMU-beta-Gal fluorescence, 48 h; series mostly up to 57.5 µM; activation: at the top concentration
Method in brief: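 Mutant human GALC (G270D), stably expressed in a Twitcher mouse brain cell line lacking endogenous GALC, is measured in live-treated cells via 6-hexadecanoylamino-4-methylumbelliferyl-β-galactoside hydrolysis (0.1 mM final, pH 5.2) with fluorescent detection.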

Sequence of UniProt P54803 (P54803 whole entry, looked up): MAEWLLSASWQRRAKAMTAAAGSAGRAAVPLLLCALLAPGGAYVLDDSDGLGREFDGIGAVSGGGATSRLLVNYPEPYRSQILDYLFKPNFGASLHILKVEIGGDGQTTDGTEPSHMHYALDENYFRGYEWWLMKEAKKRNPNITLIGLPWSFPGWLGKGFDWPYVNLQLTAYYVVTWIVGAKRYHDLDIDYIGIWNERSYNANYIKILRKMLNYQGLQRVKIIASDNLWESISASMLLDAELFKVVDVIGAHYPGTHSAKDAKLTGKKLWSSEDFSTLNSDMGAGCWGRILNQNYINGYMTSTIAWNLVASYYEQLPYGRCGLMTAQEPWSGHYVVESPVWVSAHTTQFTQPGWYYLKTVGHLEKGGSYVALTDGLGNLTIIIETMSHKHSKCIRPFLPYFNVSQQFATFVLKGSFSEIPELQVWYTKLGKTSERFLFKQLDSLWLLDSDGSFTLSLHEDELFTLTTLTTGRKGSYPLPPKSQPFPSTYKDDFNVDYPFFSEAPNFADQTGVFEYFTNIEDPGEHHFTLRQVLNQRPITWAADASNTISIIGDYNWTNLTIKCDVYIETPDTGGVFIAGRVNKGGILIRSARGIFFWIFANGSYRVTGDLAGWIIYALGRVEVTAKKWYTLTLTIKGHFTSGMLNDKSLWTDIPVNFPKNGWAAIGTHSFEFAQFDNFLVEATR

activation, inactive:
CCOc1ccccc1Nc1nc(-c2ccc(C)cc2)c(CC(=O)O)s1 -19.9%
O=c1[nH]c2ccc(NCc3ccc(-c4ccc(Cl)cc4)o3)cc2[nH]1 -5.77%
COc1ccc(/C=C\c2onc(C)c2S(=O)(=O)N2CCC(C(=O)Nc3cccc(C)c3C)CC2)cc1 -10.4%
CCOc1ccc(NC(=O)Cn2nnc(C(=O)NCc3cccs3)c2N)cc1 -7.89%
COc1ccc2c(c1)CCc1c(C(=O)Nc3c(C)nn(Cc4ccc(Cl)cc4)c3C)noc1-2 -23.8%
CC[N+](C)(CC)CCOC(=O)C(O)(c1ccccc1)C1CCCCC1 (stereo not given) -15.1%
CNC(=O)c1ccc(CSc2nc3cccnc3n2Cc2cccc(F)c2)cc1 -15.4%
CCc1ccc(-c2nc(SCC(=O)NCC3CCCO3)c(-c3ccc(F)cc3)[nH]2)cc1 (stereo not given) -21.1%
CC1=C(c2ccc(C)c(C)c2)S(=O)(=O)N=C1N1CCC(C(=O)Nc2ccc(Cl)cc2)CC1 17.9%
CCc1nn(CC(=O)N2CCN(c3cc(C)ccc3C)CC2)c(=O)c2cc3occc3n12 -11.1%
COc1ccc(CCNc2nc(SCc3ccc(F)cc3)nc3ccccc23)cc1OC -7.35%
Fc1ccccc1N1CCN(c2ncc3c(n2)CCN(Cc2ccc(Br)s2)C3)CC1 -17.4%
COc1ccccc1CCNC(=O)C(=O)NCC(c1cccs1)S(=O)(=O)c1ccc(F)cc1 (stereo not given) -5.87%
CC(Oc1ccccc1)C(=O)OCc1cc(=O)n2nc(C(C)C)sc2n1 (stereo not given) -12.7%
Cc1ccc2nc(-c3cccc(Cl)c3)c(Nc3ccc4c(c3)OCO4)n2c1 -15.1%
Cc1ccc(C)c(NC(=O)N2CCc3cc(S(=O)(=O)N4CCC(C)CC4)ccc32)c1 -14.3%
COc1ccccc1NC(=O)Cn1cc(C(=O)c2ccncc2)c(=O)c2cc(C)ccc21 -6.68%
Cc1cc(=O)[nH]c2nnc(SCC(=O)Nc3ccc(F)cc3F)n12 -13.3%
COc1ccc(Cl)cc1NC(=O)C1CCN(S(=O)(=O)c2ccc3c(c2)CCCN3C(=O)C2CCC2)CC1 -18.6%
CCc1ccc(S(=O)(=O)c2nnn3c2nc(NCc2cccc(OC)c2)c2cc(Cl)ccc23)cc1 -19.8%
O=C(Nc1cccc(-c2nc3ccccc3[nH]2)c1)c1ccccc1F -7.22%
Cc1ccsc1CN(C(=O)c1ccc(Br)cc1)C1CCS(=O)(=O)C1 (stereo not given) -5.91%
COc1ccccc1CNC(=O)c1ccc2c(c1)nnn2C1CCCC1 -8.9%
Cc1ccc(NC(=O)N2CCN3CCCCC3C2)cc1F (stereo not given) -10.9%
CCCC(CCC)C(=O)Nc1nnc2n1CCS2 -0.569%
CN(C)c1ccc(-c2noc(C3CC(=O)N(c4ccc5c(c4)OCCO5)C3)n2)cc1 (stereo not given) -12%
O=C(Nc1ccc(Cl)cc1)c1cc2c(Cl)nc3ccccc3c2s1 13.9%
Cc1cccc(N(C)C(=O)c2cc(S(=O)(=O)N3CCCCC3)c[nH]2)c1 -4.97%
COc1ccc(NC(=O)c2cc(S(=O)(=O)N3CCCCC3)cn2C)cc1Cl -1.19%
O=C(Nc1ccc(S(=O)(=O)N2CCCCC2c2cccnc2)cc1)c1ccc(F)cc1 (stereo not given) -25.3%
COc1ccc(-c2c3c(nc4sc(C(=O)Nc5ccccc5F)c(N)c24)CC(C)(C)CC3=O)cc1 -10.5%
CCc1ccc(CNC(=O)c2nn(-c3ccc(OC)c(Cl)c3)c(=O)c3c2c2ccccc2n3C)cc1 -15%
CCN(Cc1ccccc1)C(=O)CN1C(=O)CSc2ccc(S(=O)(=O)N(CC)CC)cc21 -10.6%
COc1ccccc1C(=O)N1c2ccccc2C(C)(c2ccc(Cl)cc2)CC1(C)C (stereo not given) -26.2%
COc1cc(C(=O)OCCCN2CCCN(CCCOC(=O)c3cc(OC)c(OC)c(OC)c3)CC2)cc(OC)c1OC -11.5%
COC(=O)CSc1nc2sc3c(c2c(=O)n1Cc1ccccc1)CCC(C(C)(C)C)C3 (stereo not given) -5.44%
COc1ccc(-c2nn(CC(=O)NCc3ccccc3)c3c2cnc2ccc(F)cc23)cc1 -17.8%
CCOc1ccccc1NC(=O)CN1C(=O)COc2ccc(S(=O)(=O)Nc3ccccc3)cc21 -2.57%
Cc1ccc(NC(=O)C2CCCN(S(=O)(=O)c3ccc4[nH]c(=O)ccc4c3)C2)cc1C (stereo not given) -10.4%
O=C(NCc1cccs1)c1nn(-c2ccccc2F)nc1CO -13%
CCCCNC(=O)Cn1ncc2c(C)n(Cc3cccc(Cl)c3)c(C)c2c1=O -12.1%
CCCCN(C)CCCNC(=O)CN1C(=O)CSc2ccc(S(=O)(=O)N3CCOCC3)cc21 -15.6%
Cc1ccc(-c2nc3nc(C)cc(N4CCN(c5cccc(C)c5)C(C)C4)n3n2)cc1 (stereo not given) -19.7%
O=C(Cn1c(=O)nc(-c2ccccc2F)c2cc(Cl)ccc21)Nc1ccccc1C(F)(F)F -14.8%
Cc1ccccc1CN1c2ccccc2-c2nc(SCC(=O)Nc3cc(F)ccc3F)ncc2S1(=O)=O -6.41%
Cc1cc(C)c(NC(=O)CN2C(=O)CCn3nc(-c4cccn4C)cc32)c(C)c1 -8.1%
Cc1ccc(-n2ncc(C(=O)NCCCN3CCN(C)CC3)c2C2CCN(C(=O)OC(C)(C)C)CC2)cc1 -7.15%
Cc1ccc(Cl)cc1NC(=O)c1cc(-c2ccc3c(c2)OCCO3)on1 -4.53%
O=C(Cc1ccc(NC(=O)N2CCCCc3ccccc32)cc1)Nc1ccccc1Br 3.7%
Cc1cccc(NC(=O)CN(C)S(=O)(=O)c2cnc[nH]2)c1C -10.5%
Cc1cc(C)c(NC(=O)CSc2cn(CC(=O)N3CCOCC3)c3ccccc23)c(C)c1 5.53%
CCCCC(=O)N1CCN(c2nc3c(C)c(C)ccc3s2)CC1 -22.3%
CCCCNc1cc(N2CCN(C3CCCCC3)CC2)c2noc3c2c1C(=O)c1ccccc1-3 -14.8%
CCc1ccc2c(c1)c(=O)c(C(=O)c1ccccc1)cn2CC(=O)Nc1ccc(C)c(Cl)c1 -13.1%
CCc1ccc2c(c1)c(=O)c(C(=O)c1ccc(C)cc1)cn2CC(=O)Nc1ccccc1C -5.35%
Cc1cc(C)c2c(n1)SCC(=O)N2CC(=O)Nc1cccc(C)c1C 0.0227%
Cc1oc2ncn(CC(C)C)c(=O)c2c1C(=O)NCCCN1CCCCC1C (stereo not given) -5.52%
COc1cccc(Cn2c(=O)n(CC3CCC(C(=O)N4CCOCC4)CC3)c(=O)c3sccc32)c1 (stereo not given) -12.1%
CCc1ccc(Cn2c(CNS(=O)(=O)c3ccc4c(c3)CCCC4)nc3cccnc32)cc1 -1.34%
CCOc1ccc(NC(=O)c2oc3ccccc3c2NC(=O)Cc2cccs2)cc1 -7.93%
CCN1CCN(C(=O)c2ccc3c(c2)N(Cc2ccc(Cl)cc2)C(=O)c2ccccc2S3=O)CC1 (stereo not given) -0.922%
Cc1ccc(NC(=O)CSc2nc3nccnc3c(=O)n2CCc2c[nH]c3ccccc23)c(C)c1 -10.8%
COc1ccc(-c2c(C)nn3c(-c4ccccc4)cc(-c4ccccc4)nc23)cc1 -2.59%
CCc1ccccc1NC(=O)c1ncoc1-c1ccco1 -19.4%
COc1ccc(-c2nnc(SCC(=O)NCCc3ccccc3)nc2-c2ccc(OC)cc2)cc1 -3.59%
Cc1cccc(C)c1OCC(=O)Nc1c(C(=O)c2ccccc2)oc2ccccc12 -1.39%
O=C1CSC2(C(=O)N(Cc3c(F)cccc3Cl)c3ccccc32)N1c1ccc(F)c(F)c1 (stereo not given) -23.3%
O=C(CSc1ncc2c(n1)-c1cc(Cl)ccc1N(Cc1ccccc1)S2(=O)=O)NCc1ccccc1 -6.26%
Cc1ccc(OCCSc2nc3ccccc3n2CC(=O)NC(C)C)cc1 -17.2%
CCOc1ccc(NC(=O)c2ncn(-c3ccccc3)n2)cc1 -9.81%
Cc1ccc(-c2nnn3c2nc(N2CCC(C)CC2)c2ccccc23)cc1 -3.09%
CCCCOC(=O)c1ccc(NC(=O)c2cc(=O)c3ccccc3o2)cc1 -16.3%
CC(C)C[C@@H](N)C(=O)O -6.39% [at 23.8 µM]
Cc1ccc(C)c(N2CCN(C(=O)c3cccn4c(=O)c5ccccc5nc34)CC2)c1 -25.9%
Cc1cc(SCC(=O)Nc2ccc(C(F)(F)F)cc2)nc(=O)[nH]1 -2.8%
O=C(Nc1ccc(OC(F)(F)F)cc1)C(NS(=O)(=O)c1cccc2nsnc12)c1ccccc1 (stereo not given) -9.27%
CCc1ccc(C(=O)c2cn(CC(=O)Nc3ccc(OC)cc3)c3cc4c(cc3c2=O)OCCO4)cc1 -2.95%
O=C(O)CCCn1cc(NC(=O)COc2ccccc2F)cn1 -18%
COc1ccc(C(=O)Nc2ccc3nc(N4CCCCC4)cc(C)c3c2)cc1OC -16.5%
COc1ccc(CCNC(=O)c2ccc(CSCc3ccc(C)cc3)o2)cc1OC -18.4%
Cc1cccc(CSc2ccc3nnc(CCNS(=O)(=O)c4ccccc4)n3n2)c1 -12.9%
COCCCNC(=O)C1CCN(C(=O)c2cc3sccc3n2Cc2ccc(Cl)cc2)CC1 -11.6%
CCOc1ccc(S(=O)(=O)NCCc2csc3nc(-c4cccc(C)c4)nn23)cc1 -12.5%
Cc1ccc(C(=O)Nc2nnc(S(=O)(=O)N3CCCc4ccccc43)s2)cc1 -9%
Fc1ccc(Nc2c(-c3c[nH]c4ccccc34)nc3ccccn23)cc1 -29.2%
COc1cc(NS(=O)(=O)c2cc3c(cc2C)n(C)c(=O)c(=O)n3C)cc(OC)c1 7.99%
O=S(=O)(c1ccc(Cl)cc1)N1CCC(c2ccncc2)CC1 -6.72%
O=C(Nc1nnc(S(=O)(=O)N2CCOCC2)s1)c1cccc(Br)c1 -19.3%
COc1cccc(C(=O)Nc2ccc(C(=O)OCc3cc(=O)n4cc(C)sc4n3)cc2)c1 -0.51%
Cc1nc2c(C(=O)NCCc3ccccc3)c[nH]n2c(=O)c1Cc1ccccc1F -11.3%
COc1ccc(-c2nc3c4ccccc4n(CC(=O)Nc4ccc(C(C)=O)cc4)c(=O)n3n2)cc1 -6.99%
Cc1ccccc1C(=O)NC1(C(F)(F)F)C(=O)Nc2c1c(=O)[nH]c(=O)n2CCc1ccccc1 (stereo not given) -19%
Cc1cc(C)cc(NC(=O)CSc2nc3c(cnn3-c3ccc(F)cc3)c(=O)[nH]2)c1 -21.3%
Cc1nc2ccc(S(=O)(=O)NCC(=O)Nc3ccc(C)c(Cl)c3)cc2s1 -4.73%
COc1cc(NC(=O)c2cc3cc4ccc(OC)c(Cl)c4nc3s2)cc(OC)c1 -18.6%
